Laboratory results: PubChem BioAssay AID2147 (National Center for Advancing Translational Sciences (NCATS), 2009)
Among all 230,000 compounds or so, about 3,600 (1.6%) were called active. The shares of active, inactive and inconclusive entries below differ from those in the screen. Calls come from the whole dose curve; as a rule, active = well fitted inhibition curve with a large enough effect (not every such curve was filed as active); inconclusive = small, poorly fitted or top-dose-only effect, or another doubt; inactive = no such curve, though single readings can be large or run the other way. Potencies of inconclusive entries are doubtful fits and often do not repeat.

Biological target: Lysine-specific demethylase 4E (Homo sapiens) (UniProt B2RXH2)
Test: qHTS Assay for Inhibitors of Human Jumonji Domain Containing 2E (JMJD2E)
Conditions: JMJD2E catalytic domain, FDH-coupled NADH fluorescence (FDH is formaldehyde dehydrogenase); series mostly up to 57.1 µM
Note: nearly all actives have a fitted effect of over 50% in size.
Potency is the fitted concentration of half-maximal effect; tags give direction and shape of the fitted curve.

Sequence of UniProt B2RXH2 (B2RXH2 whole entry, looked up, the tested form may be a part): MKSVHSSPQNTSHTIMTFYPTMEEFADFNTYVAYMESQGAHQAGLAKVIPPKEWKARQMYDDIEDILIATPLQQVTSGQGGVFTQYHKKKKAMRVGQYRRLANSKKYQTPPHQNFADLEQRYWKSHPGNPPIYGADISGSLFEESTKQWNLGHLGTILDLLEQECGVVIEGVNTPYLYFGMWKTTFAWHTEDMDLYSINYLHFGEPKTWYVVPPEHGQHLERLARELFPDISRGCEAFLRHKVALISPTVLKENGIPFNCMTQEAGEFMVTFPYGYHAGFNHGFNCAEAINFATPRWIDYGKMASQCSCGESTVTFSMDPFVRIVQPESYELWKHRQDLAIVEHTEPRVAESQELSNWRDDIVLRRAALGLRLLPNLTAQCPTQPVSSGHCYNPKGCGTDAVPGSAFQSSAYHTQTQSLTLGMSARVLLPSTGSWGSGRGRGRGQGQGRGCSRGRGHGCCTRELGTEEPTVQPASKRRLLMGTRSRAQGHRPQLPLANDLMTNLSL

| Structure (SMILES) | Potency |
| --- | --- |
| O=C(Nc1sc2c(c1-c1nc3ccccc3[nH]1)CCCC2)C1CCCC1 | inconclusive: 25.1 µM [inhibitor, partial curve] |
| COc1ccc(NC(=O)c2cccs2)cn1 | inactive |
| CC(=O)N1c2ccccc2NC2=C(C(=O)CCC2)C1c1ccco1 (configuration not stated) | inconclusive: 31.6 µM [inhibitor, single point] |
| O=C(NC1=NCCS1)c1ccccc1OCc1ccccc1Cl | inactive |
| COc1ccccc1-n1c2nc3ccccc3nc2c2c(=O)n(-c3cc(C)cc(C)c3)cnc21 | inactive |
| COc1ccc(C2c3sc(=O)[nH]c3SCC2C(N)=O)cc1 (configuration not stated) | inactive |
| CN(C)C(=O)CCC(=O)N1CCCC(C(=O)c2ccc3c4c(cccc24)CC3)C1 (configuration not stated) | inconclusive: 31.6 µM [inhibitor, partial curve] |
| c1nc(NCC2(N3CCOCC3)CCCCC2)c2ccsc2n1 | inactive |
| CCCn1c(=N)n(CC(=O)c2ccc([N+](=O)[O-])cc2)c2ccccc21 | inconclusive: 28.2 µM [inhibitor, single point] |
| O=C(Nc1cccn(Cc2cccc(F)c2)c1=O)NC1CCCCC1 | inactive |
| O=C1CCc2ccc(NS(=O)(=O)c3ccc(F)cc3)cc2N1 | inconclusive: 25.1 µM [inhibitor, partial curve] |
| Cc1ccc(NS(=O)(=O)c2cccc(C(=O)NCCc3c[nH]c4ccccc34)c2)c(C)c1 | inactive |
| CCOC(=O)c1sc2nc(N3CCOCC3)c3c(c2c1N)CCN(C)C3 | inconclusive: 15.8 µM [inhibitor, partial curve] |
| C/C(=C\c1ccco1)CN1CCC(N2CCC(C(=O)N3CCOCC3)CC2)CC1 | inactive |
| CC(C)c1cc(-c2cc(-c3ccc(Cl)cc3)on2)nc(NC2CCCC2)n1 | inconclusive: 28.2 µM [inhibitor, partial curve] |
| COCc1cc(=O)[nH]c(SCCS(=O)(=O)c2ccc(Cl)cc2Cl)n1 | inactive |
| NCCSc1c(-c2ccc(F)cc2)[nH]c2ccccc12 | inconclusive: 28.2 µM [inhibitor, single point] |
| COC(=O)c1cc(-c2ccccc2)n(CC(=O)O)c1C | inconclusive: 25.1 µM [inhibitor, single point] |
| CCN(CC)c1ccc(/C=N/NC(=O)c2cccc(S(=O)(=O)N3CCOCC3)c2)cc1 | inconclusive: 35.5 µM [inhibitor, single point] |
| CCN(CC)CCNC(=O)c1ccc2c(c1)ncn2C1CCCCC1 | inactive |
| CCCCCn1c(=O)[nH]c2cc(C(=O)NCc3ccc4c(c3)OCO4)ccc2c1=O | inconclusive: 28.2 µM [inhibitor, single point] |
| Nc1nnc(-c2ccccc2Cl)s1 | inconclusive: 31.6 µM [inhibitor, single point] |
| COC(=O)c1ccccc1NC(=O)CSc1nc(O)cc(=O)n1C1CCCC1 | inactive |
| CC(C)OC(=O)C(C(=O)C(F)(F)F)c1cc(NS(=O)(=O)c2ccc3ccccc3c2)c2ccccc2c1O (configuration not stated) | inconclusive: 2 µM [inhibitor, full curve] |
| Cc1cc(=O)[nH]c(N/N=C/c2c(O)n(-c3ccccc3)c(=O)c3ccccc23)n1 | inconclusive: 20 µM [inhibitor, partial curve] |
| CCOc1ccc(NC(=O)N(CCCN2CCOCC2)Cc2cccnc2)cc1 | inactive |

| Structure (SMILES) | Potency |
| --- | --- |
| COC(=O)/C(=C\Nc1ccc(Oc2ccc(F)cc2F)nc1)NC(=O)c1ccccc1 | inconclusive: 39.8 µM [inhibitor, single point] |
| CCN1CCN(c2nc(Nc3ccc(NC(C)=O)cc3)nc(Nc3ccc(NC(C)=O)cc3)n2)CC1 | inactive |
| CC(=O)Nc1ccc(CN2CCCCCCC2)cc1 | inconclusive: 39.8 µM [inhibitor, single point] |
| O=C(COC(=O)c1cc(S(=O)(=O)NCc2ccccc2)ccc1O)NCc1ccccc1 | inconclusive: 35.5 µM [inhibitor, single point] |
| CCCCn1c(=N)n(CC(=O)C(C)(C)C)c2ccccc21 | inconclusive: 22.4 µM [inhibitor, single point] |
| O=c1c(O)c(-c2ccc3c(c2)OCO3)oc2ccccc12 | inconclusive: 20 µM [inhibitor, partial curve] |
| COC(=O)c1c(NC(=O)c2c(Cl)cnn2C)sc(C)c1C | inconclusive: 4.47 µM [inhibitor, full curve] |
| O=C(CN1C(=O)S/C(=C/C=C/c2ccccc2)C1=O)Nc1ccc(C(=O)O)cc1 | inconclusive: 39.8 µM [inhibitor, single point] |
| CCN(CC)CCNc1nc(-n2nc(C)cc2C)nc2sc3c(c12)CC(C)(C)OC3 | inconclusive: 35.5 µM [inhibitor, single point] |
| CC(C)(C)OC(=O)N1CCC(CNC(=O)c2cccs2)CC1 | inactive |
| CC(=O)NCc1nnc2c3ccccc3c(-c3ccccc3)nn12 | inconclusive: 39.8 µM [inhibitor, single point] |
| O=C(Nc1ccc(S(=O)(=O)Nc2nccs2)cc1)c1cc(=O)[nH]c2ccccc12 | inconclusive: 22.4 µM [inhibitor, single point] |
| Cc1ccc(N2C(=O)CC(Sc3ncn[nH]3)C2=O)cc1C (configuration not stated) | active: 1.26 µM |
| Cn1ccnc1 | inactive |
| COc1cc(/C=N/Nc2ccc(Cl)c(C(=O)O)c2)ccc1OCC(=O)N1C(C)CCCC1C (configuration not stated) | inactive |
| O=C1C2C(c3cccc(/C=C/c4ccccc4)c3)CC=CC2C(c2ccc(C(F)(F)F)cc2)N1Cc1ccccc1 (configuration not stated) | inconclusive: 22.4 µM [inhibitor, partial curve] |
| CC(C)OC(=O)/C(=C/c1cccnc1)NC(=O)c1ccccc1 | inconclusive: 39.8 µM [inhibitor, single point] |
| C#CCCOC(=O)Nc1ccccc1 | inactive |
| CC(Oc1cc(Cl)ccc1Cl)C(=O)N/N=C\c1ccnn1C (configuration not stated) | inactive |
| CCOc1ccc(C2NC(=S)NC3=C2CCc2ccccc23)cc1 (configuration not stated) | inconclusive: 35.5 µM [inhibitor, single point] |
| CCCC(=O)Nc1sc2c(c1C(=O)OC)C(C(=O)OC)CC2 (configuration not stated) | inconclusive: 35.5 µM [inhibitor, single point] |
| C/C=C(\C)CN1CCN(c2cc(C)ccc2C)CC1 | inactive |
| O=C(Cc1ccc(F)cc1)Nc1cccc(-c2cn3c(n2)SCC3)c1 | inactive |
| COC(=O)N1C(C)=Cc2ccccc2C1C/C(C)=C/C(C)=O (configuration not stated) | inactive |
| COCCN1C=C2C(=O)C(C)(OC(=O)C3CCCC3)C(=O)C=C2C=C1c1ccsc1 (configuration not stated) | active: 3.55 µM |
| CCc1nc(-c2ccc(OC)c(OC)c2)cc2cc(OC)c(OC)cc12 | inconclusive: 25.1 µM [inhibitor, partial curve] |

| Structure (SMILES) | Potency |
| --- | --- |
| O=C1CC(c2ccco2)CC(O)=C1C=Nc1ccc(Br)cc1 (configuration not stated) | inconclusive: 39.8 µM [inhibitor, single point] |
| CCOc1cc(C=O)ccc1OCC(=O)N1CCCC1 | inconclusive: 39.8 µM [inhibitor, single point] |
| Cn1c2ccccc2c2c(C(=O)NCC3CCCO3)cn(C3CCCC3)c(=O)c21 (configuration not stated) | inconclusive: 28.2 µM [inhibitor, partial curve] |
| Nc1ccnn1Cc1ccncc1 | inconclusive: 39.8 µM [inhibitor, partial curve, poor fit] |
| CCOC(=O)C1=C(N)n2c(s/c(=C\c3ccco3)c2=O)=C(C(=O)OCC)C1c1ccco1 (configuration not stated) | inactive |
| CCn1c(CSc2nc3ccccc3s2)nnc1SCC(=O)c1ccc(O)c(O)c1 | active: 14.1 µM |
| CCn1cc(Cl)c(C(=O)N2N=C3/C(=C/c4cccs4)CCCC3C2c2cccs2)n1 (configuration not stated) | inconclusive: 31.6 µM [inhibitor, partial curve] |
| COc1ccc(N(CC(=O)NCc2ccccc2)C(=O)CCC(=O)Nc2cc(C)ccn2)c(OC)c1 | inactive |
| COc1ccc(/C=C2\N=C3CCCCCN3C2=O)cc1OC | inactive |
| COc1cc(/C=N/Nc2ncc(C(F)(F)F)cc2Cl)cc(OC)c1OC | inconclusive: 39.8 µM [inhibitor, single point] |
| CCOC(=O)N1CCC(NC(=O)Cn2c3ccccc3c3cn[nH]c(=O)c32)CC1 | inconclusive: 28.2 µM [inhibitor, partial curve] |
| COc1ccc(-c2cnnn2-c2ccc(NC(=O)c3ccc(S(=O)(=O)N4CCCCC4)cc3)cc2)cc1OC | inactive |
| CCC(=O)Nc1cc2[nH]c(=O)cc(C)c2cc1C | inconclusive: 28.2 µM [inhibitor, partial curve] |
| N#Cc1ccc(N2CCc3ccccc3C2)c([N+](=O)[O-])c1 | inactive |
| CC(=O)Nc1ccc(NC(=O)C(C)OC(=O)CN(C)S(=O)(=O)c2ccc(Cl)cc2)cc1 (configuration not stated) | inactive |
| CCOc1cc(/C=N/O)ccc1OCc1ccc(F)cc1 | inactive |
| Cc1sc2ncn(CC(=O)NCc3ccco3)c(=O)c2c1-c1ccccc1 | inactive |
| CCOC(=O)c1c(C)cc(O)c(C=O)c1O | inactive |
| COc1cc(/C=C2\C(=O)NN(c3ccccc3)C2=O)cc([N+](=O)[O-])c1O | inactive |
| O=C(/C=C/c1ccc(OC(F)F)cc1)OCC(=O)N1CCN(C(=O)c2ccco2)CC1 | inactive |
| Fc1ccc(N2N=C(c3cccs3)CC2c2ccccc2)cc1 (configuration not stated) | inconclusive: 28.2 µM [inhibitor, partial curve] |
| CC1CC1C(=O)Nc1nc(-c2cccs2)c(-c2cccs2)s1 (configuration not stated) | inconclusive: 35.5 µM [inhibitor, single point] |
| O=C(CCN1CCOCC1)c1ccccc1 | inactive |
| OCCN(Cc1ccccc1)Cc1ccc(C(F)(F)F)cc1 | inactive |
| CN1CCOC(=O)/C1=N/Nc1cc(Cl)ccc1Cl | inactive |
